Test results published in US5411733A (priority 1992, dated 1995).

Columns and labels:
herpesvirus = assay type: cell-based
CMV = assay type: cell-based

Row | SMILES | antiherpesviral activity of serum (herpesvirus) | influence on CMV proliferation (CMV)
1 | Nc1nc2c(ncn2COCCO)c(=O)[nH]1 [Acyclovir, acyclovir] | antiherpesviral activity was displayed | –
2 | C=CC[C@@H]1/C=C(\C)C[C@H](C)C[C@H](OC)[C@H]2O[C@@](O)(C(=O)C(=O)N3CCCC[C@H]3C(=O)O[C@H](/C(C)=C/[C@@H]3CC[C@@H](O)[C@H](OC)C3)[C@H](C)[C@@H](O)CC1=O)[C@H](C)C[C@@H]2OC [FK 506] | – | hardly affects CMV proliferation
3 | NC(=O)c1ncn([C@@H]2O[C@H](CO)[C@@H](O)[C@H]2O)c1O [mizoribine] | – | inhibited CMV proliferation
